# Laboratory results taken from the BET-seq Pho4 binding data (Le et al. 2018).
# The list shows a part of the results. Values were computed here from the reads of four pooled replicates and scatter widely.
# Molecular target: T1, Pho4 (S. cerevisiae) (UniProt P07270)
# T1 sequence: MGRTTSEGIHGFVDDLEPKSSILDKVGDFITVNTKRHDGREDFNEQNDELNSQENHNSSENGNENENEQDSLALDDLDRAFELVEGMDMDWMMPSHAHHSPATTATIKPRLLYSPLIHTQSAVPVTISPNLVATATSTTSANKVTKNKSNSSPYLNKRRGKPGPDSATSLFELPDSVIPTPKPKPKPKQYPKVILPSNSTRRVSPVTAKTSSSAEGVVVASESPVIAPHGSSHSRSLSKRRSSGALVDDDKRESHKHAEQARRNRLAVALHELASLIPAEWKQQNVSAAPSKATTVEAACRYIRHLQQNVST
# Assay: relative binding free energy (BET-seq); higher = weaker binding
# Settings: reference: library average
row,Sequence,relative binding free energy
1,GGCTGCACGTGTTTAT,0.04 kcal/mol
2,GAAAGCACGTGCAGGT,0.05 kcal/mol
3,AGGGTCACGTGGAATG,0.17 kcal/mol
4,CTAGACACGTGGAGTT,0.08 kcal/mol
5,TGTGTCACGTGTAGAG,0.04 kcal/mol
6,GGGGGCACGTGCATTT,0.01 kcal/mol
7,ATTTTCACGTGATTGT,0.33 kcal/mol
8,AAATCCACGTGTTGGT,0.08 kcal/mol
9,CCTAGCACGTGGGGGT,-0.22 kcal/mol
10,TGTGTCACGTGGATAG,0.12 kcal/mol
11,CTAGTCACGTGAAGTT,0.31 kcal/mol
12,GAGTGCACGTGTGAAA,0.25 kcal/mol
13,TTTAACACGTGTTCTG,-0.02 kcal/mol
14,GCAGTCACGTGAGTGT,0.2 kcal/mol
15,TATGGCACGTGCGGTA,-0.17 kcal/mol
16,TATCGCACGTGTGGGA,0.08 kcal/mol
17,TGTGTCACGTGAATTT,0.3 kcal/mol
18,AAAGTCACGTGTTTGA,0 kcal/mol
19,AATGGCACGTGATGTA,-0.02 kcal/mol
20,TGGTTCACGTGTTGGA,0.38 kcal/mol
21,GGGATCACGTGGAAGG,0.13 kcal/mol
22,TGAAACACGTGTAATG,0.16 kcal/mol
23,GTCAGCACGTGGGGTA,-0.33 kcal/mol

row,Sequence,relative binding free energy
1,GGACTCACGTGGTAGG,0.19 kcal/mol
2,AAGGGCACGTGATGAT,-0.05 kcal/mol
3,AGAGGCACGTGGAATT,-0.03 kcal/mol
4,ATATGCACGTGTGACT,0.05 kcal/mol
5,TACAACACGTGGGGGT,-0.09 kcal/mol
6,CTCAGCACGTGAGGGG,0.01 kcal/mol
7,TTGTTCACGTGGGGTT,0.16 kcal/mol
8,TGGGACACGTGAGTAA,0.12 kcal/mol
9,GCATGCACGTGATTTG,0.24 kcal/mol
10,TTCTTCACGTGTGGTG,0.29 kcal/mol
11,ATTGCCACGTGTCGGT,-0.02 kcal/mol
12,GATTTCACGTGAGATA,0.41 kcal/mol
13,CGCTTCACGTGGGGGC,0.06 kcal/mol
14,TGTAGCACGTGGGGGC,-0.12 kcal/mol
15,GATTACACGTGTTAGT,0.15 kcal/mol
16,CCTGGCACGTGGTAGT,-0.17 kcal/mol
17,AGAATCACGTGTTGTA,0.06 kcal/mol
18,TACTTCACGTGTGGGT,0.27 kcal/mol
19,TTTTGCACGTGGAGAG,0.04 kcal/mol
20,AATTGCACGTGTTGAT,0.16 kcal/mol
21,GCTTACACGTGAGGTG,0.43 kcal/mol
22,GATTTCACGTGAGGCG,0.6 kcal/mol
23,GTTCACACGTGGGGTG,-0.01 kcal/mol

row,Sequence,relative binding free energy
1,GTGAACACGTGGAAGG,0.04 kcal/mol
2,ATCAGCACGTGGGGCG,-0.14 kcal/mol
3,AGTTTCACGTGGTACT,0.15 kcal/mol
4,TTGTTCACGTGAGTCG,0.18 kcal/mol
5,GTTGCCACGTGGGTTG,-0.11 kcal/mol
6,TCTTGCACGTGTGAAT,0.13 kcal/mol
7,GTTTTCACGTGGGGCC,0.27 kcal/mol
8,TGCATCACGTGTATAG,0.27 kcal/mol
9,GTGGTCACGTGTGATG,0.2 kcal/mol
10,AGCATCACGTGCGTGG,0.08 kcal/mol
11,TTGGTCACGTGTAGAA,0.18 kcal/mol
12,AGGGCCACGTGGTTTG,-0.09 kcal/mol
13,GTATTCACGTGAGGTT,0.41 kcal/mol
14,TAGGGCACGTGTTGTG,-0.09 kcal/mol
15,TGGTACACGTGATGTA,0.13 kcal/mol
16,TTTCTCACGTGGGAGA,0.27 kcal/mol
17,ATAGTCACGTGGCTTA,0.03 kcal/mol
18,TAGTCCACGTGGTGGC,0 kcal/mol
19,CGTAACACGTGTGGCG,0.07 kcal/mol
20,GTTCGCACGTGGTGAA,0.06 kcal/mol
21,CTTTTCACGTGTATCG,0.3 kcal/mol
22,AAGGGCACGTGAGCAG,0.08 kcal/mol
23,CGTGTCACGTGTGCGT,0.09 kcal/mol

row,Sequence,relative binding free energy
1,CCGGTCACGTGTTTGG,0.02 kcal/mol
2,TGTATCACGTGTCAGA,0.1 kcal/mol
3,GAATTCACGTGGCGGG,0.33 kcal/mol
4,GGTATCACGTGCAAGT,0.16 kcal/mol
5,TTACGCACGTGTTATA,-0.02 kcal/mol
6,GAGTGCACGTGCGGGC,-0.06 kcal/mol
7,GGCTTCACGTGAGTTG,0.39 kcal/mol
8,GGGGTCACGTGGCTTC,0.09 kcal/mol
9,TTAAGCACGTGGATTA,0.03 kcal/mol
10,TTTGCCACGTGGAGCG,-0.06 kcal/mol
11,TTGGTCACGTGTATTA,0.2 kcal/mol
12,GTATTCACGTGTTGGA,0.4 kcal/mol
13,TCAAGCACGTGGGTTT,-0.34 kcal/mol
14,TTGGGCACGTGTACAA,0.01 kcal/mol
15,TGGAGCACGTGGAGGA,-0.07 kcal/mol
16,TATTCCACGTGTTGGG,0.18 kcal/mol
17,TTATTCACGTGATTAA,0.09 kcal/mol
18,ATTGTCACGTGGGAAT,0.12 kcal/mol
19,TGCTACACGTGATGGG,0.05 kcal/mol
20,GTGTACACGTGTCTGT,0.02 kcal/mol
21,GAGTACACGTGGAGGT,0.17 kcal/mol
22,GACGTCACGTGGGTGT,0.07 kcal/mol
23,TTGTACACGTGTTCTA,-0.01 kcal/mol

row,Sequence,relative binding free energy
1,TTGTTCACGTGATCGA,0.38 kcal/mol
2,TTCTGCACGTGGTAAG,-0.03 kcal/mol
3,GTTATCACGTGGGCCG,0.06 kcal/mol
4,TTAAACACGTGAGGCT,0.29 kcal/mol
5,TGATTCACGTGTTCTG,0.2 kcal/mol
6,TGGGGCACGTGGCTCT,-0.14 kcal/mol
7,GAATTCACGTGCGTTT,0.25 kcal/mol
8,ACTAGCACGTGGGGGA,-0.16 kcal/mol
9,TATTACACGTGTCGGG,0.17 kcal/mol
10,ATGTTCACGTGATTAG,0.37 kcal/mol
11,AAATGCACGTGGGTCG,-0.18 kcal/mol
12,TGAGACACGTGAAGTA,0.25 kcal/mol
13,CTATGCACGTGTGTGA,0 kcal/mol
14,TGACTCACGTGGGAGT,-0.07 kcal/mol
15,CGGTGCACGTGGTAGT,-0.05 kcal/mol
16,CGAGTCACGTGGGTGT,-0.04 kcal/mol
17,TAGAGCACGTGCGGTT,-0.01 kcal/mol
18,AATGTCACGTGTGTTG,0.14 kcal/mol
19,TGCGTCACGTGTTGTC,0.08 kcal/mol
20,TGTATCACGTGGTGAG,-0.02 kcal/mol
21,GTTGGCACGTGCAGTG,0.04 kcal/mol
22,AAAACCACGTGGTGGG,-0.02 kcal/mol
23,GCTAGCACGTGGAGGA,0.02 kcal/mol
